This is an account of results in patent US7537764.

The target in this assay is T1, recombinantly expressed purified soluble WNV E protein (truncated form, strain 382-99) (West Nile virus strain 382-99, UniProt Q9Q6P4 291-696).
T1 construct: also called recombinant WNV-E protein; truncated E protein
T1 sequence: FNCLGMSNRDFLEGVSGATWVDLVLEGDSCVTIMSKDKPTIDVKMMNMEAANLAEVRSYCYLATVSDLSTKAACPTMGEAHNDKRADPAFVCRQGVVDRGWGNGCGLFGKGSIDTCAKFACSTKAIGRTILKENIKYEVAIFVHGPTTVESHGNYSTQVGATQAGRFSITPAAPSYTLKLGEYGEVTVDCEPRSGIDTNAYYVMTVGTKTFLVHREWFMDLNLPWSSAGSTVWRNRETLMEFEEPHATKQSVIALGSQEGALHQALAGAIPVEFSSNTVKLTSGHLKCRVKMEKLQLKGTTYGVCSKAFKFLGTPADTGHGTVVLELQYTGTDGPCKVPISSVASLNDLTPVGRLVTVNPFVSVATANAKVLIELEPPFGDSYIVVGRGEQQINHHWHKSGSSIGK
The experiment in a line: phage ELISA on coated recombinant soluble WNV E protein. Background: ELISA stands for enzyme-linked immunosorbent assay.

B1: SC04-274 (scFv)
scFv: QVQLVQSGAEVKKPGESLKISCKGSGYSFTSYWIGWVRQMPGKGLEWMGIIYPGDSDTRYSPSFQGQVTISADRSISTAYLQWSSLKASDTAMYYCARLRGPYYDFWNGYRETHDAFNVWGQGTTVTVSSGTGGSGGTGSGTGGS[skipping about 100 residues]FGGGTKVEIKR
Regarding B1, the “OD 492 nm” value was determined as 0.496 OD.
